Some of the results follow.

Data on 89 sequences can be found in the supplement of paper PMC11417369.

In this assay the test system is PfAP2-HC AP2 domain (GST-tagged). The assay can be described thus: gcPBM binding intensity (ln(normalized median fluorescence intensity)); higher = stronger DNA binding. The method in brief:
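Binding of GST-tagged P. falciparum DNA-binding domains, expressed in E. coli and used at about 25 μg on average, was carried out for 1 h in 1× PBS containing 1% milk, 0.2 mg/ml BSA, 0.5% salmon testes DNA and 0.03% Triton X-100. The target was an Agilent 4 × 180k array of primer-extended double-stranded 36-bp intergenic genomic probes plus negative controls, read with Alexa488 anti-GST antibody at 488 nm. Binding intensity is the highest Masliner-normalised natural-log median intensity across replicate spots of either probe orientation.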
Take “GAAATGTGATAATATACACACACGCATATATATATA [CACACA_site4332]”: the “gcPBM binding intensity (ln)” value was determined as 10.2.
“ATTATATATATATTATGTACATATATTGAAGTGGAT [XGTACX_site5916]”: the “gcPBM binding intensity (ln)” value amounted to 9.74.
Take “ACGGATTAAAAAATGTGTACGCACAAAAAAAAAAAT [XGTACX_site8259]”: the “gcPBM binding intensity (ln)” value worked out at 9.93.
Next, “TACGAAATCATATGTACACACACATATATATATATA [CACACA_site5216]”: 9.96.
Next, “TTTTTAATCCTTTGCGCATGTAAAATTATATATTTT [TGCATGCA_site306]”: 9.72.
Next, “TATATATATATGTGTACACAAAAAATATTATATTAT [CACACA_site5505]”: 9.76.
Take “ATTCTATTTTTAAGTACACACATATATATATATATA [CACACA_site3658]”: the “gcPBM binding intensity (ln)” value worked out at 9.78.
For the sequence “ACATAATTATTATGCACACATATTTTTATGTATTTA [CACACA_site698]”, the “gcPBM binding intensity (ln)” value came to 10.
Consider “ATACTTTATTAATATTGTACAAAATAAGAAAAAAAA [XGTACX_site310]”, for which the “gcPBM binding intensity (ln)” value was found to be 9.67.
Next, “ACATAAAAATTATGCACACTTAATAAAGCGAAATGT [CACACA_site3183]”: 9.85.
“CACAACAGGGTTGAGGTGCGTAAAAATAGTAGAATA [GTGCAC_site9523]”: the “gcPBM binding intensity (ln)” value is 9.59.
Regarding “TTTTGAAGTAATACATGTACTTAAATTACTAAAAAA [XGTACX_site1955]”, the “gcPBM binding intensity (ln)” value was found to be 9.47.
Next, “ACTTTGCGTTAAAAGAGTACATAATATTTTTTTTTT [XGTACX_site7533]”: 9.46.
The result for “TAATGGTGTTCATGTGGTACACTTTATAAATTGGCA [XGTACX_site729]” reads 9.49; that for “TTGAAAATTCTTAAGGCACACACATATATAATATAT [CACACA_site8088]”, 9.99.
Next, “GCTTATTTTAATTCTTGTACTTATTTATATACAAAT [XGTACX_site2099]”: 9.81.
“AAACTAACTCTAACATGTACATATATATATATATAT [XGTACX_site6949]”: the “gcPBM binding intensity (ln)” value was determined as 9.74.
The result for “ATCACAAAAAAGTTCATACACACAACCTATTTATAT [CACACA_site2888]” reads 10; that for “AAATCAAATTTTTAGAGTACTTAAGTTTTCTATATA [XGTACX_site7827]”, 9.36.
In the case of “TCCCCATATGTTTTGTGTACATATATATTTTTTTGT [XGTACX_site75]”, the “gcPBM binding intensity (ln)” value was 10.1.
Next, “TAATATATTAATATATGTACATATTTATATATCTAC [XGTACX_site7117]”: 9.81.
Next, “ATAAAGTCTATATTATGTACATATAATATAAATATT [XGTACX_site6703]”: 9.57; “GAACATTACGTAAATAAATAAATAAAAATAAATACA [XGTACX_negctrl_site25]”: 9.85.
With “AAAAAACTTCACATATGTACTTAAAAAAAATTAAAA [XGTACX_site2368]”, the “gcPBM binding intensity (ln)” value amounted to 9.43.
As for “TATTGTCTTGTATATGCATGTAGACCAAATATGTAA [TGCATGCA_site9]”, the “gcPBM binding intensity (ln)” value amounted to 9.29.
As to “CAAAAAAAAATCTGTAGTACTTATTAATATTGCTGT [XGTACX_site4767]”, the “gcPBM binding intensity (ln)” value amounted to 9.58.
Take “ATATATGGAAAGAGTAGTACTATTATAGGGGTGTTA [XGTACX_site6785]”: the “gcPBM binding intensity (ln)” value was 9.86.
For the sequence “TGATTATTATAATTTAGTACATAATATTTTATATAA [XGTACX_site6125]”, the “gcPBM binding intensity (ln)” value was found to be 9.46.
As for “CAAGGAACCAGACACACACACATAAATGTATATATA [CACACA_site752]”, the “gcPBM binding intensity (ln)” value is 10.2.
Next, “AAAACAAAAGAATTCACACATATATATATATATATA [CACACA_site4777]”: 10.2.
Next, “AAAATTAAACATACATCACACATGCATTATATTATG [CACACA_site5517]”: 9.8; “AAAATTAACGAGTGCACACATATTTAGATAAAATAC [CACACA_site2936]”: 10.3.
With “TTAAACGTACATAATACACACACATGTAGACATATA [CACACA_site8635]”, the “gcPBM binding intensity (ln)” value was 10.
In the case of “AAATAAGAGCGTAGCACACACGCATTTTATAAATGG [CACACA_site4571]”, the “gcPBM binding intensity (ln)” value came out at 10.3.
Next, “TCATATAAGTTTAGTAGTACTAAAAGTTAGAGAGAA [XGTACX_site3430]”: 9.91.
The result for “AATGAAGACTTTTTTACACACTTCATATCTTATAGA [CACACA_site7046]” reads 9.7; that for “AGCCACAATACGGAAACACACAAGTTATTTTATCAT [CACACA_site2724]”, 9.87; that for “TTTTTATGAATTCTTTTGTTAATAATAATATGTTGT [TGCATGCA_negctrl_site198]”, 9.61.
As to “AAATTTTTTCCGATTTGTACTTATATTTCTTTATTA [XGTACX_site1762]”, the “gcPBM binding intensity (ln)” value amounted to 9.89.
“AATATTTTTAATTAATGTACATATTTATTATATAAA [XGTACX_site5112]”: the “gcPBM binding intensity (ln)” value came to 9.45.
Next, “ATATATATATATGTACACATATATGTGTTTGTTTTT [GTGCAC_negctrl_site5]”: 10.2; “CTATTACAAAGAAATTGTACATATATATATAAAAAC [XGTACX_site8800]”: 9.59.
Regarding “ATCTTTCAATAATTCACACATATATATATATATATA [CACACA_site4598]”, the “gcPBM binding intensity (ln)” value was 9.8.
Next, “ATAATATATATATTTTGTACACATGAAAAGGAGGAT [XGTACX_site5034]”: 9.9.
“TAAATAAATTTATGTACACACACAAATAAATACATA [CACACA_site5107]”: the “gcPBM binding intensity (ln)” value turned out to be 10.
Consider “AAAAAAAAGAAAAACACACACATATTTATTTATAAC [CACACA_site6600]”, for which the “gcPBM binding intensity (ln)” value was 10.2.
For “TATATATTAAATTATAGTACACATTATATATAATTA [XGTACX_site4841]”, the “gcPBM binding intensity (ln)” value was 9.54.
Consider ATAATATATGTATGTATGCACTTTTATTATTTTTTT, for which the “gcPBM binding intensity (ln)” value was determined as 9.9.
Next, “TATATATATATATATAGTACACATATCACATAAATG [XGTACX_site6379]”: 9.77; “TTATTTTTATTATAAATTATAAAATATAAATAAATA [GTGCAC_negctrl_site616]”: 9.18.
Consider “TAAATCCGCACGCACACACACATATTAATAAAAAAA [CACACA_site7800]”, for which the “gcPBM binding intensity (ln)” value worked out at 10.5.
With “ATATATTATATATATAGTACGTATATAAATTTAATT [XGTACX_site5041]”, the “gcPBM binding intensity (ln)” value amounted to 9.61.
The result for “CATGAATTTTTTTAATGTACATTCACATCATAAAAA [XGTACX_site7475]” reads 9.35; that for “TCTTCTTAACCAACTATGAAAAGGAAAAATATAACA [GTGCAC_negctrl_site565]”, 9.3.
Regarding “GAAACTATGTAATGCACACCAAAATAAAATTATTAA [CACACA_site1904]”, the “gcPBM binding intensity (ln)” value was 9.66.
Next, “ATTATAAAAAAGAAACGTACATATTTATTGTTTTTT [XGTACX_site2161]”: 9.58; “TATATAAATATACACCCACACACATATATATATATA [CACACA_site9247]”: 10.1.
Take “TATATATATAACATATGTACATATATTTATAAATAC [XGTACX_site5484]”: the “gcPBM binding intensity (ln)” value turned out to be 9.81.
The result for “AATAATTTAATACATACACACGTATATCTTTTTTTT [CACACA_site8632]” reads 9.83.
The result for “ATCGTAGTATAATATGAACACACACCCACCCACAAA [CACACA_site8616]” reads 10.2.
As for “TATATTCCACTCATTGATTTTCTCTTCTCACAAAAA [CACACA_negctrl_site1016]”, the “gcPBM binding intensity (ln)” value is 9.47.
In the case of “TATAAAAAAAAATGTGGTACATATTTCCATTTTCCA [XGTACX_site4571]”, the “gcPBM binding intensity (ln)” value is 9.69.
The result for “TATAATAATACTTATTGTACTATTAGTTTAATTCAT [XGTACX_site6638]” reads 9.61.
As for “TACTATTATTATTGCACACTTATTATCCCTCGGATA [CACACA_site162]”, the “gcPBM binding intensity (ln)” value came to 9.73.
The result for “AATATATATTAATACACACACACATATATATATATA [CACACA_site3786]” reads 10.3.
On to “TGATCATAGAAACACACACACAAAAAAAAAAAAAAA [CACACA_site4008]”, for which the “gcPBM binding intensity (ln)” value is 10.1.
Next, “TTTTAATTAGTACAAACACACATATACAGACAAAAA [CACACA_site2563]”: 10.1; “AGACGATAAATCATTCATTCATTTACCATCCAAAAA [CACACA_negctrl_site802]”: 9.41.
The result for “TAATATAGAAAATGCATACACACTTTATATATATAT [CACACA_site911]” reads 9.73; that for “CTTTTTAATGAATACACACACACACCGATATATATA [CACACA_site5296]”, 10.7.
As to “AAATATTATTGACGATGTACTTCTATTCATAAGTAT [XGTACX_site3964]”, the “gcPBM binding intensity (ln)” value came out at 9.61.
The result for “GAATAATATGGACATACACACATATACATACCTATA [CACACA_site7075]” reads 9.93.
Turning to “TAAAACTTATACAAATGTACAAATATATATATATAT [XGTACX_site4661]”, the “gcPBM binding intensity (ln)” value worked out at 9.53.
With “AAAATTTTTTTTGGCGCACACTAATAATAAAATATA [CACACA_site470]”, the “gcPBM binding intensity (ln)” value came to 9.64.
The result for “AAGAGAGAGAAATATGCACACATAAGGGAAATAAAT [CACACA_site8300]” reads 9.92.
The result for “TATATATGTATGTATGTACACACAAAAAATGGAATA [CACACA_site9235]” reads 10.2.
As to “TTCTTTTTTATTTATACATGCAATAAAAAATTGATT [TGCATGCA_site730]”, the “gcPBM binding intensity (ln)” value turned out to be 9.61.
Consider “TTTTTTTAAAACAAAAAAAAAAAAAAAAAAAAAAAA [TGCATGCA_negctrl_site418]”, for which the “gcPBM binding intensity (ln)” value is 8.22.
Next, TTGATAAAATCACTGGTGCATGTAGATATATAATAT: 9.66; “AATAAACATTATTTTCGTATTCCAATTCTTTTTTTT [XGTACX_negctrl_site374]”: 9.64; “AAAAAAAAAAGAAAAAGTACATACATACATATATAT [XGTACX_site6405]”: 9.66.
On to “TTATTATTAGAAAAAAGTACACATATAAAATGTTAC [XGTACX_site6426]”, for which the “gcPBM binding intensity (ln)” value stood at 9.55.
For the sequence “GGATACATATGTAAAAGTACACATGAATATATACAT [XGTACX_site6469]”, the “gcPBM binding intensity (ln)” value amounted to 9.76.
The result for “GTAAAATTAAAAATAACACACAAAAAAAAAAAAAAA [CACACA_site800]” reads 9.85; that for “AATAATATTGAAATGTGTACGTATTTATATTTTATG [XGTACX_site8252]”, 9.72; that for “TTTTGTTATATTCAATATTTATATATTATAAATATA [CACACA_negctrl_site1705]”, 9.46.
As for “TTTTTCTTTTTTACAGTGCATAAATATATGTATTGT [GTGCAC_site9399]”, the “gcPBM binding intensity (ln)” value is 9.6.
The result for “TTGTGAATAACTAAGAAGAAAAAGATAAATATGTAT [TGCATGCA_negctrl_site388]” reads 9.54; that for “TATTCATGCATATACACACACATATATTTATATTTT [CACACA_site7786]”, 10.3.
